# Hit rate of the full screen: of about 420,000 compounds, about 64,000 (15%) were called active. Inconclusive means that the source gave no clear call. Such entries were picked first, then a sample of the others. Calls come from the whole dose curve; as a rule, active = well fitted inhibition curve with a large enough effect; inconclusive = small, poorly fitted or top-dose-only effect; inactive = flat fitted curve, though single readings scatter. No potency is given beside an inconclusive call; the fits are too rough.
# Test: qHTS for Inhibitors of human tyrosyl-DNA phosphodiesterase 1 (TDP1): qHTS in cells in absence of CPT; note: nearly all actives have a fitted effect of over 55% in size
# Details: DT40 Tdp1-/- hTDP1 cells, no CPT, ATP luminescence, 48 h; activity change, negative = growth inhibition: at 46.2 µM (top of the series)
# How it was run: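 Camptothecin absent (DMSO only). Human TDP1-complemented DT40 knockout cells, 400 cells/well, 37 °C for minimum 48 hr; ATP measured via CellTiter-Glo, 30 min dark incubation, luminescence.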
# % is set by controls: 0 for no effect and ±100 for the full control effect; potency is the fitted concentration of half-maximal effect; tags give direction and shape of the fitted curve.
SMILES,Potency,"activity change, negative = growth inhibition"
Cc1ccc(Oc2nc3ccccn3c(=O)c2/C=C(\C#N)C(=O)Nc2c(C)n(C)n(-c3ccccc3)c2=O)cc1,"inconclusive [inhibitor, single point]",–
O/N=C/Cc1[nH]c2ccccc2c1-c1ccccc1,inactive,–
Cc1nc2cc(NS(=O)(=O)c3ccccc3F)ccc2s1,inactive,–
COc1ccccc1Cn1c(=S)[nH]c2cc(C(=O)NCCCN3CCOCC3)ccc2c1=O,"inconclusive [inhibitor, single point]",–
Cc1cnc(-n2ncc(C(=O)NC(C)(C)CO)c2-c2cccs2)nc1-c1ccc(F)cc1,"inconclusive [inhibitor, single point]",–
Cc1ccc2[nH]c3c(c2c1)CN(C(=O)CN1CCCCC1)CC3,"inconclusive [inhibitor, partial curve]",–
CC(C(=O)NCc1ccco1)n1cc(C(=O)c2ccco2)c2ccccc21 (stereo not given),"inconclusive [inhibitor, single point]",–
CCNC(=S)N/N=C/c1cn(Cc2ccccc2F)c2ccccc12,active: 5.8 µM,–
CCc1nn2c(=O)c(S(=O)(=O)Nc3ccc(OC)c(Cl)c3)c(C)nc2s1,"inconclusive [inhibitor, single point]",–
S=c1[nH]nc(-c2ccccc2)n1/N=C/c1ccc(-c2ccccc2Cl)o1,active: 13 µM,–
COc1ccc(C(CC(=O)Nc2ccc(C)c(C)c2)N2Cc3ccccc3C2=O)cc1OC (stereo not given),active: 20.6 µM,–
COc1ccccc1NC(=O)CSc1nnc(CNC(=O)c2ccccc2F)o1,inactive,–
C=CCc1ccc(OCCOCCOc2ccccc2[N+](=O)[O-])c(OC)c1,"inconclusive [inhibitor, partial curve]",–
O=C(NCC(c1cccnc1)N1CCN(Cc2ccccc2)CC1)C(=O)Nc1ccc(Cl)cc1 (stereo not given),active: 7.31 µM,–
CSC(SC)=C(C(C)=O)C(=O)c1ccc(C)cc1,"inconclusive [inhibitor, single point]",–
Cc1ccn(-c2cccc(-n3ccc(C)n3)n2)n1,inactive,–
COc1ccc(/C=C/C(=O)Nc2nc(C)cc(C)n2)cc1OC,"inconclusive [inhibitor, single point]",–
COc1ccccc1NS(=O)(=O)c1cc(C)ccc1C,"inconclusive [inhibitor, single point]",–
CSc1cccc(CN2CCC(Oc3cccc(C(=O)N4CCCC4)c3)CC2)c1,"inconclusive [inhibitor, single point]",–
COc1ccc(-c2csc(NC(=O)CCNC(=O)c3ccco3)n2)cc1OC,active: 16.4 µM,–
O=C(N/N=C/c1ccc(O)cc1O)C(=O)N/N=C/c1ccc(O)cc1O,"inconclusive [inhibitor, single point]",–
CCn1c(Nc2ccccc2Cl)nc2ccccc21,inactive,–
CC1(C)Cc2cccc(Oc3ccc(S(=O)(=O)N4CCCCC4)cn3)c2O1,"inconclusive [inhibitor, single point]",–

SMILES,Potency,"activity change, negative = growth inhibition"
CCN(Cc1ccccc1)C(=O)Cn1c(=O)n(Cc2ccccc2)c(=O)c2c1c1cc(OC)ccc1n2C,"inconclusive [inhibitor, full curve]",–
Cc1ccc2c(=O)cc(CSc3ccccc3)[nH]c2c1C,"inconclusive [inhibitor, partial curve]",–
CCOC(=O)[C@]12CCC=C1N(Cc1cccc3ccccc13)C(=O)[C@H](CC(=O)N1CCN(C(=O)c3ccco3)CC1)C2,"inconclusive [inhibitor, single point]",–
O=C(c1ccc(CS(=O)Cc2ccccc2Cl)o1)N1CCN(c2ccccn2)CC1 (stereo not given),active: 16.4 µM,–
CCc1ccccc1NC(=O)C1CCN(C(=O)c2ccc([N+](=O)[O-])cc2)CC1,inactive,–
COc1ccc(NC(=O)C(C)N(c2ccc(C)cc2)S(C)(=O)=O)c(OC)c1 (stereo not given),"inconclusive [inhibitor, single point]",–
CC(C)(C)C(=O)Nc1ccc(/C=C/C(=O)c2ccco2)cc1,"inconclusive [inhibitor, single point]",–
Cc1ccc(-c2nn(-c3ccccc3)cc2/C=N/O)cc1,inactive,–
CCCc1cc(Nc2ccccc2OCC)n2ncnc2n1,"inconclusive [inhibitor, single point]",–
O=C(OCCN=C1NS(=O)(=O)c2ccccc21)c1cccc([N+](=O)[O-])c1,inactive,–
CC(C)Cn1c(SCC(=O)c2c(N)n(C)c(=O)n(C)c2=O)nc2ccccc21,"inconclusive [inhibitor, single point]",–
Cc1ccc(CSCC(=O)N2CCN(c3ccc(F)cc3)CC2)cc1,active: 23.1 µM,–
COc1ccccc1C(=O)NNC(=S)NC(=O)c1cc(OC)c(OC)c(OC)c1,active: 6.51 µM,–
CCC(CC)C(=O)Nc1cc(C)cc(C)c1,inactive,–
CSCCC(NC(=O)C1CCCCC1)c1nc2ccccc2[nH]1 (stereo not given),"inconclusive [inhibitor, single point]",–
Cc1ccccc1CNC(=O)Cc1ccccc1[N+](=O)[O-],–,inconclusive: -27.7% [inhibitor]
CC(=O)c1cccc(S(=O)(=O)NCCc2csc3nc(-c4ccc(F)cc4)nn23)c1,"inconclusive [inhibitor, single point]",–
CC(C)c1ccc(C(=O)N2CCCC(c3cc(C(=O)NCc4ccccc4)no3)C2)cc1 (stereo not given),active: 14.6 µM,–
O=[N+]([O-])c1ccc(N2CCN(C(=S)Nc3ccc(F)cc3F)CC2)cc1,active: 8.2 µM,–
COCCCn1c(C)cc(C(=O)COC(=O)C23CC4CC(CC(O)(C4)C2)C3)c1C,"inconclusive [inhibitor, single point]",–
C[C@@H]1CN([C@H](C)CO)S(=O)(=O)c2ccc(Br)cc2O[C@@H]1CN(C)C(=O)Nc1ccc(C(F)(F)F)cc1,"inconclusive [inhibitor, partial curve, poor fit]",–
CCOC(=O)C1(Cc2cccc(OC)c2)CCN(Cc2cccn2-c2nccs2)CC1,"inconclusive [inhibitor, single point]",–

# From PubChem BioAssay AID686978 (National Center for Advancing Translational Sciences (NCATS), 2013)
